The record followed here is article PMC4336329 (PLoS ONE, 2015).

Structures are written as SMILES. Out of some 310,000 compounds screened, about 2,200 (0.71%) showed an effect of 50% or more. The effect is printed as a negative number. The list shows a part of the results.

Chain of human ether-à-go-go-related gene (hERG) potassium channel (Q12809 whole entry, looked up): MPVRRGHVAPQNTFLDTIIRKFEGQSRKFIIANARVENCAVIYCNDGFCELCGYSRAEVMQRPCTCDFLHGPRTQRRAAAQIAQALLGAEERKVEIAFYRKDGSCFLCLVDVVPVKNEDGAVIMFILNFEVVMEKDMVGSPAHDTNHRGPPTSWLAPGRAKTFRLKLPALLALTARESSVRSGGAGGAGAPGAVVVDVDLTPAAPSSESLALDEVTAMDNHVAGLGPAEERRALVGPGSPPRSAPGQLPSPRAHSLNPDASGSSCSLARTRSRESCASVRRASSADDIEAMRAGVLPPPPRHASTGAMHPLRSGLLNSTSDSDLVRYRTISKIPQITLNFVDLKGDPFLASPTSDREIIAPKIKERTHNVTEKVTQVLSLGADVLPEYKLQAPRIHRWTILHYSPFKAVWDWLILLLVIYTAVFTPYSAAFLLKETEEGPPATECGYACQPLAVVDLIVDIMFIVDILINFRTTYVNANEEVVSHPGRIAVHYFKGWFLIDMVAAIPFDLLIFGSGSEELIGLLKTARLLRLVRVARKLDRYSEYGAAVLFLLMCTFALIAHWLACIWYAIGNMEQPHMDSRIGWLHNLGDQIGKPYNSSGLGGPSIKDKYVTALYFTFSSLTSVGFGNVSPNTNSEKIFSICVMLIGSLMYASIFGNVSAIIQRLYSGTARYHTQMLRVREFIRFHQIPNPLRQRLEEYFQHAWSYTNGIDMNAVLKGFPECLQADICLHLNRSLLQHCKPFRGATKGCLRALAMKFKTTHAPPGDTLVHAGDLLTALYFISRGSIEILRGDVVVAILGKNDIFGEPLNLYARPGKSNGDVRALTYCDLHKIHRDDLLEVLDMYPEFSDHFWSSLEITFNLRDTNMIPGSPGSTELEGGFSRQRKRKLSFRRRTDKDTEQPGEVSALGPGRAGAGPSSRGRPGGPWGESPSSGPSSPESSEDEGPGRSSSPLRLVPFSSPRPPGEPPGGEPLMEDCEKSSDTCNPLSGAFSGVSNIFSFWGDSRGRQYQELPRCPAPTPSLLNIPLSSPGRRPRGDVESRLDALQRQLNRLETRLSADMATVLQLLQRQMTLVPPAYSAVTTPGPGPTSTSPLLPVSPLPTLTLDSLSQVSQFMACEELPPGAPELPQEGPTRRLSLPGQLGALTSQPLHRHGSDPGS

This experiment addresses human ether-à-go-go-related gene (hERG) potassium channel (human, UniProt Q12809). The experiment can be described thus: primary screen, population patch clamp on CHO cells stably expressing hERG.
For the molecule `O=C(COc1ccccc1Cl)Nc1ccccc1C(=O)NC1CC1`, the “hERG current change (%, negative = inhibition) at 1uM” value was found to be 1.14%. For the molecule `O=C(O)CCCC(=O)Nc1ccc(Cl)cc1`, the “hERG current change (%, negative = inhibition) at 1uM” value was found to be 9.18%. `CC(C)C(NC(=O)c1cccc(S(=O)(=O)N2CCOCC2)c1)C(=O)NCc1ccc(Cl)cc1` (centres unmarked): the “hERG current change (%, negative = inhibition) at 1uM” value was 12.6%.

`CCN(CC)C(=O)CC(c1ccccc1)c1ccco1` (centres unmarked): the “hERG current change (%, negative = inhibition) at 1uM” value is recorded as 2.11%.

`COc1ccc(N)cc1S(=O)(=O)Nc1ccccc1Cl`: the “hERG current change (%, negative = inhibition) at 1uM” value worked out at 13.9%. The figure for `O=c1c(C/C=C/c2ccccc2)c(O)ccn1CCc1c[nH]c2ccccc12` is 13.4%. Regarding `Cc1ccc(C(=O)OCC(=O)N(C)c2ccccc2)c(C)c1`, the “hERG current change (%, negative = inhibition) at 1uM” value is recorded as 18.9%.

For `CN1C(C(=O)NCc2cccc(C(F)(F)F)c2)CC2Cn3c(nc4cc5ccccc5cc43)C21` (centres unmarked), the “hERG current change (%, negative = inhibition) at 1uM” value is reported as -10.8%. The figure for `COc1ccc(CNc2ncc(-c3ccccc3)n2C)c2ccccc12.O=C(O)C(=O)O` is 10.6%; for `COc1cccc(NC(=O)Cn2cc(C#N)c3ccccc32)c1` it is 9.84%.

As for `Br.N=C(N)SCc1nc2ccccc2c(=O)n1-c1ccccc1Cl`, the “hERG current change (%, negative = inhibition) at 1uM” value worked out at 1.95%. The figure for `CC(=O)C1=C(C)N(Cc2ccccc2)C(=O)N[C@H]1c1cccs1` is 2.8%. Consider `O=C(O)C1CC=CCC1C(=O)Nc1cccnc1` (centres unmarked), for which the “hERG current change (%, negative = inhibition) at 1uM” value is given as 6.4%. On to `Cc1cc(=O)[nH]c2c(C)cc(S(=O)(=O)Nc3ccc(O)cc3)cc12`, for which the “hERG current change (%, negative = inhibition) at 1uM” value is recorded as 13.3%. Regarding `COc1ccc(S(=O)(=O)Cc2ccc(C(=O)N3CC(C)CC(C)C3)o2)cc1` (centres unmarked), the “hERG current change (%, negative = inhibition) at 1uM” value is -5.28%. The same measure for `COc1cc(C)c(C)cc1S(=O)(=O)NC1CC(C)(C)NC(C)(C)C1`: 11.3%. The same measure for `CCOc1ccc(CN2CCSCC2)cc1`: 8.31%; for `CCn1c(SCc2nc3ccccc3c(=O)[nH]2)nnc1-c1cccnc1`: 2.89%; for `Cc1ccc(S(=O)(=O)N2CCCC2C(=O)Nc2nc3c(s2)CCCC3)cc1` (centres unmarked): 13.2%. `CC1=NS(=O)(=O)c2cc(Cl)ccc2N1`: the “hERG current change (%, negative = inhibition) at 1uM” value is on record as 3.24%. Consider `COc1ccccc1C(=O)Nc1cc2cc(Cl)ccc2oc1=O`, for which the “hERG current change (%, negative = inhibition) at 1uM” value is -0.255%. On to `CN(CCO)C(=O)CCC(=O)Nc1ccc(S(N)(=O)=O)cc1`, for which the “hERG current change (%, negative = inhibition) at 1uM” value is reported as -4.32%. The figure for `C=CCN(CC=C)S(=O)(=O)c1ccc(NC(=S)NC(=O)/C=C/c2ccc(C)cc2)cc1` is 5.21%; for `COc1ccc(-c2csc(N3CCN(c4cc(C)nc5ccccc45)CC3)n2)cc1OC` it is 0.19%; for `CCC(C(=O)Nc1ccc(C(=O)N2CCCC2)cc1)c1ccccc1` (centres unmarked) it is 12.7%. The same measure for `O=c1c2ccccc2[nH]c(=S)n1Cc1cccnc1`: 7.38%. The same measure for `CCCCCOc1ccc(CSc2n[nH]c(C)n2)cc1`: 16.1%; for `CNC(=O)C1CC(=O)N(CCCc2ccccc2)C(=Nc2ccccc2)S1` (centres unmarked): 5.55%. Turning to `O=C(Cc1ccccc1)N[C@H](c1ccccc1)P(=O)(O)CO`, the “hERG current change (%, negative = inhibition) at 1uM” value came to 6.22%. The same measure for `O=C(CC(Cc1ccccc1)C(=O)O)NCCc1ccc2c(c1)OCO2` (centres unmarked): -9.79%. The same measure for `O=C1CSCN1c1ccc(Cl)cc1`: 9.08%. The figure for `CCC(C)(C)n1nnnc1C(c1cc2cc(C)cc(C)c2[nH]c1=O)N1CCCC1` (centres unmarked) is 7.13%. As to `CC(C)CC(NS(=O)(=O)c1ccccc1)C(=O)O` (centres unmarked), the “hERG current change (%, negative = inhibition) at 1uM” value worked out at 10.3%. As for `CCOc1ccc(NC(=O)CSCC(=O)O)cc1`, the “hERG current change (%, negative = inhibition) at 1uM” value is 4.12%. The same measure for `O=C(CSc1nc2ccccc2c(=O)n1Cc1ccco1)NCCN1C(=O)CSC1=O`: -56%.

For `COc1ccc(Cl)cc1NC(=O)Cn1c(=O)n2nc(C)nc2c2ccccc21`, the “hERG current change (%, negative = inhibition) at 1uM” value stood at 0.74%. With `COc1ccccc1C1C(C#N)=C(N)N(N(C)C)C2=C1C(=O)CC(C)(C)C2` (centres unmarked), the “hERG current change (%, negative = inhibition) at 1uM” value is 6.54%. The same measure for `CSCC(=O)N1CCCC(N2CCN(c3cccc(C(F)(F)F)c3)CC2)C1` (centres unmarked): -18.4%. The same measure for `CC(=O)c1cccc(NC(=O)c2ccc(N(Cc3ccc(C)cc3)S(C)(=O)=O)cc2)c1`: -13.7%; for `CC(=O)c1ccc(S(=O)(=O)N2CCN(CCOc3ccc(Br)cc3)CC2)cc1`: 11.3%; for `CCOC(=O)[C@H]1[C@H]2COc3ccc(C)cc3[C@@H]2N2C(=O)c3ccc(C)cc3NC(=O)[C@@]12C`: 7.82%. The figure for `Cc1cnc(=O)[nH]c1SCc1cccc([N+](=O)[O-])c1` is 7.53%; for `Oc1cc(O)cc(/C=C/c2ccc(O)c(O)c2)c1` it is 5.83%; for `O=C(Oc1ccc(-c2cnc3ccccc3n2)cc1)c1cc([N+](=O)[O-])ccc1Cl` it is 15.2%. `CCCN(C(=O)c1ccco1)c1nnc(-c2ccncc2)s1`: the “hERG current change (%, negative = inhibition) at 1uM” value is given as -5.41%. Consider `COC(=O)c1cc(C(=O)N2CCc3ccccc32)cc([N+](=O)[O-])c1`, for which the “hERG current change (%, negative = inhibition) at 1uM” value was -2.21%. In the case of `Cc1cccc(C)c1NC(=O)CCn1cnc2ccccc2c1=O`, the “hERG current change (%, negative = inhibition) at 1uM” value is listed as 14.9%.

As for `COc1ccc(OC)c(C(C)NC(=O)Nc2ccccc2)c1` (centres unmarked), the “hERG current change (%, negative = inhibition) at 1uM” value amounted to 6.31%. In the case of `CCOC(=O)N1CCN(C(=O)CSCc2ccccc2C)CC1`, the “hERG current change (%, negative = inhibition) at 1uM” value is recorded as 7%.

Take `COc1ccc(OC)c(NC(=O)N[C@H](Cc2ccccc2)C(=O)NN)c1`: the “hERG current change (%, negative = inhibition) at 1uM” value is reported as 23.9%.

With `CCN(CC)CC(O)CN1c2ccccc2Sc2ccccc21` (centres unmarked), the “hERG current change (%, negative = inhibition) at 1uM” value was 7.71%. The figure for `CC(=O)Nc1ccc(S(=O)(=O)CCC(=O)O)cc1` is 14.5%. On to `Cn1cc(C(=O)Nc2ccc3c(c2)CCC3)cn1`, for which the “hERG current change (%, negative = inhibition) at 1uM” value is 15.4%.

Regarding `CC(=O)Nc1ccc(OCC(=O)c2cc(C)ccc2C)cc1`, the “hERG current change (%, negative = inhibition) at 1uM” value was 8.78%. The figure for `COc1ccc(-c2nnc3ccc(SCC(=O)N4CCCCC4)nn23)cc1OC` is 6.34%; for `NNC(=O)c1ccccc1CO` it is 3.03%. As for `Cc1nc(N=Nc2ccc(O)cc2)n[nH]1`, the “hERG current change (%, negative = inhibition) at 1uM” value is given as 3.4%. Consider `COC(=O)CN(C#N)c1nc(NCc2ccccc2)nc(OC)n1`, for which the “hERG current change (%, negative = inhibition) at 1uM” value was found to be 9.91%.

For the molecule `COCCC(=O)N1CCC(Oc2ccc(C(=O)N(C)C3CCCCC3)cc2)CC1`, the “hERG current change (%, negative = inhibition) at 1uM” value is on record as 14%.
